B1: VPS26A […], the VPS26 part of the fusion VPS26([…])-DMT1([…]) (domain or fragment)
chain: not shown
B2: VPS26A […], the VPS26 part of the fusions VPS26([…])-DMT1(549–560) and VPS26([…])-DMT1(549–560)(L557M) (domain or fragment)
chain: not shown
modifications: labeled with SeMet (selenomethionine)
B3: VPS26 from pmr101A-VPS26, with an extra MG at the N terminus and … at the C terminus (natural protein)
chain: not shown
modifications: labeled with SeMet (selenomethionine)

Target: N-terminal part of human VPS35 (VPS35N), […] (human)
Assay: crystal structure

Binder | binding result
B1 | binds
B2 | binds
B3 | binds
